Each structure is given as a SMILES string. Out of some 46,000 compounds screened, about 60 (0.1%) were called active. Not shown: some 3% with an inconclusive outcome. Calls follow the shape of the dose curve; as a rule, active = well fitted inhibition curve with a large enough effect; inconclusive = small, poorly fitted or top-dose-only effect; inactive = no such curve, though single readings can be large or run the other way. The list shows a part of the results.

This assay in a line: Primary qHTS assay for Inhibitors of ovarian cancer metastasis using an organotypic tumor microenvironment (TME) model. Also: nearly all actives have a fitted effect of over 65% in size.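 As to activity change, negative = inhibition: plate controls were DMSO wells for no effect and tomatine positive control wells for full effect.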 The note with it: SKOV3ip1-GFP adhesion/invasion on 3D omental model, fluorescence; series mostly up to 45.8 µM; activity change, negative = inhibition: at the top concentration. The essentials: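 Primary human omental fibroblast/mesothelial 3D culture pre-formed 48 h. SKOV3ip1-GFP cells added with compounds (0.36-46 umol/L), incubated 2 h RT/16 h 37 C, fixed; GFP cells quantified at 488/509 nm.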
(In general: qHTS replaces the single test concentration by a dilution series.)
Turning to `Cc1cccc(CN2C(=O)c3ccccc3S(=O)(=O)c3ccc(C(=O)N4CCCC4)cc32)c1`, the call was inactive.

Regarding `COc1ccc(OC)c(S(=O)(=O)Nc2ccc3[nH]c(=O)[nH]c3c2)c1`, the “activity change, negative = inhibition” value was inactive: 4.68%.

Turning to `COc1ccc(NS(=O)(=O)c2ccc3c(c2)oc(=O)n3C)cc1Cl`, the outcome was inactive.

`COc1cccc(NC(=O)c2nnn(Cc3cccc(C(F)(F)F)c3)c2N)c1`: the “activity change, negative = inhibition” value was inactive: 9.68%.

On to `CCn1ccc2cc(S(=O)(=O)N3CCCN(C(=O)Nc4ccc(C)cc4)CC3)ccc21`, for which the call was inactive.

Regarding `CCN(CC)S(=O)(=O)c1ccc(NC(=O)[C@H](CCSC)N2Cc3ccccc3C2=O)cc1`, the “activity change, negative = inhibition” value was inactive: 7.08%.

Consider `Cc1ccc(S(=O)(=O)c2nnn3c2nc(N2CCCCC2)c2sccc23)cc1`, for which the “activity change, negative = inhibition” value is inactive: 0.614%.

For the molecule `Cc1c(C(=O)NN2CCCCC2)nn(-c2ccc(Cl)cc2Cl)c1-c1ccc(Cl)cc1`, the “activity change, negative = inhibition” value is inactive: -5.08%.

Regarding `CCc1nc(SCc2cc(=O)c3cc(F)ccc3[nH]2)n[nH]1`, the “activity change, negative = inhibition” value is inactive: -5.82%.

With `NC(=O)Cn1c(=O)n(-c2ccc(F)c(Cl)c2)c(=O)c2sc3ccccc3c21`, the “activity change, negative = inhibition” value was inactive: 6.77%.

On to `Cc1ccc(N2CCN(c3cc(C)nc4c(-c5ccc(Cl)cc5)c(C)nn34)CC2C)cc1` (stereo not drawn), for which the “activity change, negative = inhibition” value was inactive: -9.68%.

As for `Cn1c(=O)c2c(nc(SCC(=O)Nc3ccc(F)cc3)n2Cc2ccc(Cl)cc2)n(C)c1=O`, the molecule was called inactive.

Turning to `CCOc1ccc(Cn2c(CNS(=O)(=O)c3cccs3)nc3cccnc32)cc1`, the call was inactive.

With `Cc1cccc(Cn2c(-c3cccs3)nc3ccccc32)c1`, the “activity change, negative = inhibition” value was inactive: -0.358%.

With `CC(=O)c1cccc(NC(=O)CN2C(=O)CN(C)C(=O)c3ccccc32)c1`, the “activity change, negative = inhibition” value was inactive: -2.35%.

As for `Cc1cc(C)cc(N(C)S(=O)(=O)c2nnc(NC(=O)COc3ccc(Cl)cc3)s2)c1`, the “activity change, negative = inhibition” value is inactive: -6.06%.

`CCOc1ccc(NC(=O)c2ccc3c(c2)c(C)c(C)n3Cc2ccc(F)cc2)cc1`: the outcome was inactive.

Regarding `Cc1ccc(C)c2sc(N3CCN(C(=O)c4ccco4)CC3)nc12`, the “activity change, negative = inhibition” value was inactive: 0.205%.

With `Cc1ccc(NC(=O)Cn2ncc3c4ccccc4n(Cc4ccccc4)c3c2=O)cc1Cl`, the molecule was called inactive.

In the case of `Cc1cn2c(=O)c(S(=O)(=O)NC(C)c3ccccc3)c(C)nc2s1` (stereo not drawn), the molecule was classed as inactive.

For the molecule `Cc1cc2nc(-c3cccc(NC(=O)COc4ccc(C(C)C)cc4)c3)oc2cc1C`, the “activity change, negative = inhibition” value is inactive: -2.38%.

Regarding `Cc1ccc(N(C)S(=O)(=O)c2c(-c3ccccc3)csc2C(=O)O)cc1`, the molecule was classed as inactive.

As to `COc1ccc(N2CCN(C(=O)c3c(C)oc4nc(C)nc(N5CCCC5)c34)CC2)cc1`, the “activity change, negative = inhibition” value was inactive: 19.1%.

Consider `Cc1nc2c([nH]1)CCN(C(=O)c1ccc(NC(=O)c3ccccc3-c3ccccc3)cc1)c1ccccc1-2`, for which the “activity change, negative = inhibition” value is inactive: -9.49%.

In the case of `Cc1ccccc1-c1nnc(SCC(=O)N2CCCc3ccccc32)o1`, the “activity change, negative = inhibition” value was inactive: -3.33%.

Regarding `COc1ccc(-c2nc(C)c(CCNC(=O)c3cccs3)s2)cc1`, the “activity change, negative = inhibition” value is inactive: -5.39%.

As to `CC(C)Oc1ccc(CNS(=O)(=O)c2csc(C(N)=O)c2)cc1`, the outcome was inactive.

Take `CCOc1ccccc1NC(=O)CCc1nc(-c2cccc(C)c2)no1`: the molecule was called inactive.

As for `O=C1c2ccccc2C(=O)C1(c1ccccc1)N1CCN(c2cccc(C(F)(F)F)c2)CC1`, the “activity change, negative = inhibition” value was inactive: -19.9%.

`Cc1cccc(C(=O)OCc2cc(=O)n3nc(C4CC4)sc3n2)c1`: the outcome was inactive.

For the molecule `Cc1ccc(-c2nc(C(=O)Nc3cccc(C#N)c3)c3n2CCCCC3)cc1`, the outcome was inactive.

Regarding `CC(C)c1ccc(N2C(=O)CSC23C(=O)N(Cc2ccccc2F)c2ccccc23)cc1` (stereo not drawn), the “activity change, negative = inhibition” value is inactive: -3.35%.

In the case of `Cc1ccc(NC(=O)N2CCC(CN3CCCCCC3)CC2)c(Cl)c1`, the “activity change, negative = inhibition” value is inactive: 2.76%.

Take `Cc1nc(-c2ccc(S(=O)(=O)Nc3ccc(OC(F)(F)F)cc3)cc2)co1`: the “activity change, negative = inhibition” value is inactive: 13.3%.

With `CCCNC(=O)c1c(NC(=O)c2ccccc2F)sc2c1CCCCC2`, the “activity change, negative = inhibition” value is inactive: 17.1%.

As to `COc1cccc(-n2c(=O)c3sccc3n(Cc3cc(=O)n4cc(Cl)ccc4n3)c2=O)c1`, the “activity change, negative = inhibition” value was inactive: 0.927%.

Consider `CCC(=O)N1CCc2cc(S(=O)(=O)NCCC(=O)NCc3ccc(OC)cc3)ccc21`, for which the “activity change, negative = inhibition” value is inactive: 6.18%.

As to `Cc1nc2nncn2c(Nc2ccc(F)cc2)c1C`, the molecule was classed as inactive.

Turning to `COc1ccc(Cl)cc1NC(=O)c1cc2ccccn2n1`, the “activity change, negative = inhibition” value is inactive: 3.76%.

With `COc1cc2c(cc1OC)CC(=O)N(CCCN(C)C[C@H]1Cc3cc(OC)c(OC)cc31)CC2`, the “activity change, negative = inhibition” value was inactive: -3.17%.

As for `Cc1ccc(-c2nc(CCNC(=O)C(=O)Nc3ccc(F)cc3F)cs2)cc1`, the “activity change, negative = inhibition” value was inactive: -10.6%.

As to `Cc1ccc(C(=O)Nc2cc3cc(Cl)ccc3oc2=O)cc1`, the call was inactive.

Take `Cc1ccc(-c2nc3sc(CCNC(=O)c4ccco4)c(C)n3n2)cc1`: the “activity change, negative = inhibition” value was inactive: 7.91%.

Turning to `Fc1ccc(C(c2nnc(-c3ccccc3)o2)N2CCN(c3ccccc3)CC2)c(Cl)c1` (stereo not drawn), the “activity change, negative = inhibition” value was inactive: -17.3%.

In the case of `CC(C)C(=O)Nc1c(C(=O)N2CCN(c3ccccc3F)CC2)oc2ccccc12`, the result was inactive.

Regarding `COc1ccccc1CNC(=O)CCCN1C(=O)CCn2nc(-c3cn(C)c4ccccc34)cc21`, the molecule was called inactive.

As for `COc1ccccc1NCc1nnc2n1CCCCC2`, the “activity change, negative = inhibition” value was inactive: -15.2%.

On to `Cc1ccc2c(c1)N(CC(=O)NCCCN1CCCCC1)C(=O)c1cccnc1O2`, for which the “activity change, negative = inhibition” value was inactive: -1.68%.

Values taken from PubChem BioAssay AID1963576 (National Center for Advancing Translational Sciences (NCATS), 2024).
